In PubChem BioAssay AID488969 (Vanderbilt High Throughput Screening Facility, 2010) one finds z-score data, which are given here for 69 compounds.

Whole data set: some 110,000 compounds, median “z-score” near -0.1, cut for the highest 2% near 2. This is one part of the list. The source made the active and inactive calls.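 How the source made its calls: active means z-score in the third read window above 3 or below -3; inactive means the rest.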

For this experiment, the target named is Metabotropic glutamate receptor 8 (Rattus norvegicus) (UniProt P70579). Put plainly: rat mGluR8 modulators via GIRK flux, primary screen, cell-based, thallium flux, HTS (AID 488969). Particulars: HEK293 rat mGluR8, GIRK (G protein-gated inwardly rectifying potassium channel) thallium flux, FluoZin2; at 10 µM; stronger effect = higher value; submaximal glutamate (EC20) added with thallium.
Sequence of UniProt P70579 (P70579 whole entry, looked up): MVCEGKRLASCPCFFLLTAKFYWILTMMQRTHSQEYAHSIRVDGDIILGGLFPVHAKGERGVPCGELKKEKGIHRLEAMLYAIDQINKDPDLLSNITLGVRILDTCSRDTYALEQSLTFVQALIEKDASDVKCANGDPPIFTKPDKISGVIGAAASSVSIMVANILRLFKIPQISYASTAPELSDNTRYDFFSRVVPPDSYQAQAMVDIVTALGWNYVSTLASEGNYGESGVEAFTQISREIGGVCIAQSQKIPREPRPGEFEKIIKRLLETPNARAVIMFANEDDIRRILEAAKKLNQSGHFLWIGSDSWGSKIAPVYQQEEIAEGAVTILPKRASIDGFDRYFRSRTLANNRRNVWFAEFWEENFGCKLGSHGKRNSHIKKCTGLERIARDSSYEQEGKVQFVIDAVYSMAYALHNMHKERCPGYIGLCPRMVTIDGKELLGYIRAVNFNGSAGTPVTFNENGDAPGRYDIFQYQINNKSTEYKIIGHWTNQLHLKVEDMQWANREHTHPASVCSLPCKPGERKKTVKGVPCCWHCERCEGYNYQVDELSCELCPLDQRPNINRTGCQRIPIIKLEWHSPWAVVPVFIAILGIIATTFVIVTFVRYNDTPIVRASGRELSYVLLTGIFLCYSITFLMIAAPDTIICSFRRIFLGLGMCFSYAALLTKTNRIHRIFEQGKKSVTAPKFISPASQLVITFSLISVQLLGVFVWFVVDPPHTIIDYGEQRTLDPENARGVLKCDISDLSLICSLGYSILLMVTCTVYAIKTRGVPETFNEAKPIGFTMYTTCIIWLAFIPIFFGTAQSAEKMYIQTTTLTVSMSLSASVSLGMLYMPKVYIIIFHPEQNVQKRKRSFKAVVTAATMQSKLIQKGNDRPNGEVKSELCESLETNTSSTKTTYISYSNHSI
Consider `CCC(C)(c1nnnn1-c1c(C)cccc1C)N(N=O)c1ccccc1Cl` (centres undefined), for which the z-score is -0.506.
To `CC(C)(C)C1CCC(C(=O)OCC(=O)N2CCOCC2)CC1` (centres undefined) belongs 0.199; to `N#Cc1c(/N=C/C=C/c2ccccc2)sc2c1CCCC2`, 0.972.
Compound `CCNc1oc(-c2cccc3ccccc23)nc1C#N` displayed a z-score of -0.357.
For the compound `Cc1ccccc1N(CC(=O)NCCc1ccccc1)C(=O)c1ccc(N2CCCC2)nc1`, the z-score was -0.219.
As to `O=C(O)[C@H]1CCCC[C@H]1C(=O)NCCNC(=O)[C@@H]1CCCC[C@@H]1C(=O)O`, the z-score is -0.0826.
The result for `O=C(CSc1nnc(-c2ccccc2)c(-c2ccccc2)n1)Nc1ncc(Cl)cc1Cl` reads 0.143; that for `O=C(CCS(=O)(=O)c1ccccc1)Nc1nc2c(s1)CCCC2`, -0.0589.
In turn, `CC(OC(=O)c1cccs1)C(=O)Nc1nc(-c2ccccc2)cs1` (centres undefined) came in with a z-score of -0.103.
In turn, `COc1cccc(NC(=O)CC2C(=O)NC3CCCCC3N2C(=O)c2ccc(F)cc2)c1` (centres undefined) came in with a z-score of -0.153.
Compound `O=C(COc1ccccc1Cl)NCCCN1CCOCC1` showed a z-score of 1.3.
`c1ccc(-c2nnc(N3CCOCC3)nc2-c2ccccc2)cc1` had a z-score of -0.818.
The result for `O=C(COC(=O)c1cccc([N+](=O)[O-])c1)c1ccc(OCc2ccccc2)cc1` reads -0.231; that for `C=CCOC(=O)C1=C(C)NC(=S)NC1/C=C/c1ccccc1` (centres undefined), 0.0399.
`O=C(Nc1ccccc1)N(C1=NCCC1)c1ccc(OC(F)F)cc1`: the z-score came to 0.321.
For `Cc1ccc(NN2C(=O)C=CC2=O)cc1`, the z-score was -0.674.
To `c1cn2cc(CSC3CCCCC3)nc2s1` belongs -0.102.
Regarding `O=C(NC(=S)N1CCN(Cc2ccccc2)CC1)c1ccccc1`, the z-score was active: 6.31.
Turning to `O=[N+]([O-])c1ccc(CN2CCCCCC2)s1`, the z-score was -0.0604.
In turn, `O=C(NCc1ccco1)c1cnc2sccn2c1=O` returned a z-score of -0.0632.
In the case of `COc1ccc(NC(=O)C2(c3ccc(NC(=O)c4ccc(C)cc4)cc3)CCCC2)cc1`, the z-score is -0.11.
As to `Cc1cc(C)c(NC(=O)C2CCCN2CCOC(=O)c2ccccc2)c(C)c1` (centres undefined), the z-score worked out at 0.259.
Regarding `COc1cccc(C(=O)Cn2c(NCCO)nc3ccccc32)c1`, the z-score was -0.516.
For `COc1cc(/C=C/C(=O)N(C)c2ccccc2C(=O)O)cc(OC)c1OC`, the z-score was -0.0676.
As to `CC(C)(C)C(=O)Cn1c(NCCCO)nc2ccccc21`, the z-score was -0.106.
As to `COc1ccc(C(=O)NCc2ccccc2OC)cc1`, the z-score was found to be 0.71.
Take `O=c1c2c(nc3c(-c4cccc(Br)c4)c[nH]n13)CCCC2`: the z-score is active: 6.35.
Consider `O=C(COC(=O)C12CC3CC(CC(C3)C1)C2)NCc1ccco1`, for which the z-score is -0.0397.
To `CCOC(=O)C1C(=O)CC(C)(O)C(C(=O)OCC)C1c1cc(Br)ccc1OC` (centres undefined) belongs -0.151; to `CCN(CC)c1ccc(C(=O)N/N=C(\C)c2ccc(OC)c(OC)c2)cc1`, 0.585.
In the case of `COc1ccc(N2C(=O)CC(NC3CCCCNC3=O)C2=O)cc1` (centres undefined), the z-score turned out to be 0.287.
Compound `Cc1cc(C)c2c(-n3cccc3)nn(C)c2n1` showed a z-score of -0.0664.
To `CCOc1ccccc1NC(=O)CSc1nnc(-c2ccccn2)n1Cc1ccco1` belongs active: -3.11; to `CCOc1ccc2nc(SC3CC(=O)N(c4cccc(OC)c4)C3=O)sc2c1` (centres undefined), 0.642.
The result for `COC(=O)c1c(NC(=O)COC(=O)c2ccc(Cl)cc2[N+](=O)[O-])sc2c1CCCCC2` reads -0.191.
Turning to `COc1ccc(S(=O)(=O)Nc2cc(C)ccn2)cc1`, the z-score was -0.11.
For the compound `CN1/C(=C\C(=O)CSc2nncn2C)C(C)(C)c2ccccc21`, the z-score is -0.00813.
Compound `COc1ccc(C2=NOC3(CC(=O)N(c4ccc(C)cc4)C3=O)C2)c(OC)c1` (centres undefined) came in with a z-score of 0.85.
`CCN(c1ccc(NC(=O)COC(=O)c2ccc3ccccc3n2)cc1)C(C)C` returned a z-score of -0.386.
Regarding `CCOc1cc(/C=C2/SC(=Nc3ccccc3)N(Cc3cccnc3)C2=O)ccc1OCC#N`, the z-score stood at 0.0194.
In turn, `COc1ccc(C(C)=O)cc1CSc1nc2cc(Cl)ccc2o1` displayed a z-score of 0.00484.
To `C/C(=N\Nc1nc(C)cc(=O)[nH]1)C1CC1` belongs -0.013; to `CC1=NN(c2ccc(C(=O)OC(C)C)cc2)C(=O)/C1=C\C=C\c1ccco1`, -0.0494.
The compound `COc1ccc(Cl)cc1NC(=O)CN(C1CCCCC1)S(C)(=O)=O` showed a z-score of 0.0369.
In the case of `COc1ccccc1N(CC(=O)NCc1ccccc1)C(=O)CCC(=O)Nc1cc(C)ccn1`, the z-score is -2.26.
`COCCn1c(CN2CC(C)CC(C)C2)nc2c1c(=O)n(C)c(=O)n2C` (centres undefined) had a z-score of -0.298.
To `O=C(CN1CCCc2ccccc21)N/N=C/c1ccccc1` belongs 0.502.
As for `COCCSc1ccccc1C(=O)Nc1nnc(COC)s1`, the z-score is -0.364.
`COc1cc(/C=C2\SC(N)=NC2=O)ccc1OCC(=O)Nc1ccc(C)cc1` had a z-score of -0.311.
As to `CN1CCc2c(sc(N)c2C(N)=O)C1`, the z-score is -0.167.
Compound `CC(C)(C)NC(=O)CN(C(=O)CNC(=O)c1cccs1)c1ccc2c(c1)OCCO2` came in with a z-score of -0.126.
As for `Cc1ccccc1NC(=O)CSc1nnc(Cc2cccn2C)n1-c1ccc(F)cc1`, the z-score is -1.8.
`COc1ccc(Cl)cc1C(=O)Nc1ccccc1N1CCN(C)CC1` gave a z-score of 1.61.
Turning to `COc1ccc(Nc2nc(NC(C)(C)C)nc(N3CCCC3)n2)c(OC)c1`, the z-score is -0.481.
`O=C(Nc1ccc(-n2ccnc2P(=O)(O)c2ccccc2)cc1)c1ccccc1Br` came in with a z-score of -0.0467.
`O=C(Nc1ccc(Cl)cc1)c1cnc(-c2ccccc2)nc1-c1ccccc1` had a z-score of -0.78.
`CN(C)S(=O)(=O)c1ccc(Cl)c(NC(=O)CSc2nc3c(cc2C#N)C(=O)CC(C)(C)C3)c1` showed a z-score of -1.06.
The result for `CC(=O)N(C1=C(O)c2ccccc2C(=O)C1=O)C1CCCCC1` reads 0.107; that for `COc1cc(OC)c(C(=O)NC2CC(C)(C)NC(C)(C)C2)cc1OC`, 0.123.
With `CCCC12CN3CCN(CC(C3)/C1=N\NC(=O)Nc1ccccc1)C2`, the z-score is -0.242.
`Cc1ccc(C)c2[nH]c(=O)c(CN(CC3CCCO3)S(=O)(=O)c3ccc4c(c3)OCCO4)cc12` (centres undefined): the z-score was -0.106.
In turn, `CC(C)C(C(=O)NC1CCCCC1)N(CC1CCCO1)C(=O)CNS(=O)(=O)c1ccc(F)cc1` (centres undefined) yielded a z-score of -0.692.
For `C#CCSc1nnc(-c2ccccc2)c(=O)[nH]1`, the z-score is -0.655.
The result for `Cc1ccc(Cn2c(S(=O)(=O)O)nc3ccccc32)cc1` reads -0.0368.
The result for `Cc1cc(C(=O)CN2C(=O)NC3(CCCc4ccccc43)C2=O)c(C)n1Cc1ccccc1` (centres undefined) reads 0.254; that for `Cc1ccc(CNS(=O)(=O)c2cn(C)cn2)cc1`, -0.0597; that for `O=S(=O)(NC1CCCCC1NCc1ccco1)c1ccccc1` (centres undefined), -0.558.
The compound `CCOCCc1nnc(NC(=O)CSc2ccccc2)s1` gave a z-score of 0.805.
To `COC(=O)/C=C1\N/C(=N\c2nc(C)cc(C)n2)N(c2ccc(C)c(C)c2)C1=O` belongs 0.0494.
